Measured values from the supplement of paper PMC11417369.
The list shows a part of the results.

tested on: PfSIP2 AP2 domain 1 (GST-tagged); assay: gcPBM binding intensity (ln(normalized median fluorescence intensity)); higher = stronger DNA binding
How it was run: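 The highest Masliner-normalised natural-log median intensity across replicate spots of either probe orientation is reported as binding intensity. GST-tagged P. falciparum DNA-binding domains expressed in E. coli were applied for 1 h to an Agilent 4 × 180k array of primer-extended double-stranded 36-bp intergenic genomic probes plus negative controls, and bound protein was detected with Alexa488 anti-GST antibody and scanned at 488 nm.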

Sequence | gcPBM binding intensity (ln)
GAAAAAAAAAAAAAAAAACACACGGTACATTCAAAG [CACACA_site303] | 6.86
AAATTATAATTAGGAACACACATATATATATATATA [CACACA_site3098] | 9.59
TACATACATACATACATACACACATATATATATATA [CACACA_site1996] | 9.18
TACATGTATAATATAATACACACTATATAATATACA [CACACA_site2239] | 6.92
ATCAAACAAAAAATAAAAAAATGCGACATGTGTACA [TGCATGCA_negctrl_site164] | 7.06
GAAAATTATGTATATTGTACAAATATTATATTAAAT [XGTACX_site2467] | 6.97
TTAATATTTTTAATTTGTACATATAATTAAATCTCT [XGTACX_site1736] | 6.84
TATAAAATTTAAATTATACACACTTAAGTAACATCA [CACACA_site531] | 7.14
CAAGGACAATTTACAAACATAATATATGTATATATA [TGCATGCA_negctrl_site5] | 7
TTGAATACATATATATGTACATATTCTATGGTTAGA [XGTACX_site4088] | 6.94
ATTATCTTCAAGTATGTACACACTATATATAATAAA [CACACA_site2441] | 7.19
CTGAGGAAGCTAATTACACACATGCATATTTTTTTT [CACACA_site2177] | 7.07
TTTTTTTTACATGAACGTACATAATATATTTTATAA [XGTACX_site5249] | 7.08
TGGTGTTTTTTTTAATGTACTTATAAAATAATACAT [XGTACX_site6574] | 7.29
ATGTAAAAATAAAGATGTACATGTATATATATATAT [XGTACX_site5193] | 9.19
AATATATATTCATGTGTACACACAAAAAAAAATAAA [CACACA_site8690] | 7.55
CCTATAATTAGGGGTAGTACACAAAAAAAAAAAAAA [XGTACX_site6396] | 7.66
AATTCCTTATACAATTGTACATAAAAAGAATAAAAA [XGTACX_site1343] | 7.41
TTAAAAAAGAATTGTGCACACACAAAAAATGTTCAT [CACACA_site1102] | 8.76
TATGGGTATGTATTCACACATAACAAAAATATCAAA [CACACA_site5059] | 6.89
ATATATATATATAACACACGCAAAAAAATTAAATAA [CACACA_site1400] | 9.16
TTTTATATATTCAATTGTACATGTATTTTTTTTTTT [XGTACX_site3584] | 6.99

Sequence | gcPBM binding intensity (ln)
CAAAGACACAAACACACACACACATACATACATACA [CACACA_site453] | 8.24
ATAAATTTACTTGATTGTACATTTCTTAGTTGTATT [XGTACX_site3057] | 6.82
TATACTGATAAAAAAAGTACTAGAGTTTGTAAAAAT [XGTACX_site3934] | 6.72
CACAAGAAAGTTCACACACACACATATATATATATA [CACACA_site6009] | 9.6
TTATATGTCAATTTGCGTACATACATAATTACATAT [XGTACX_site1546] | 6.99
AATTTTAATTTTTTGACACACATATAATATATATAT [CACACA_site3978] | 8.25
ATAAGGTTACAACAAACACACAAAGGAATATACGCA [CACACA_site4090] | 7.22
AAGAAGAATAGGCGTTGTACGGAATGTAGTAGAGTT [XGTACX_site2430] | 7.28
TTAATATAAATATGATTTTTGATTCCTATACTATTT [CACACA_negctrl_site752] | 6.56
TTGTATTCATATGGTTGTACATATTAAAAGTTCTAA [XGTACX_site7255] | 6.97
TTTATTTTTAAAGGCACACACATTTTTATTTTTAAA [CACACA_site2021] | 6.93
TTCTTTTTTTTCAGTTGTACTTATAAGAAAGAAAAA [XGTACX_site4028] | 7.2
TTTATTTATAGAATTACACACATATATACACAAATG [CACACA_site7338] | 7.2
ATATATATAACAAAAGTGCATTAAGGGGATGCTATA | 8.25
TTATTATAAATAGGTAGTACATTTTGAACAAATATT [XGTACX_site8866] | 7.3
AATATAAATATAGGAAATGTAGTTAAAAGGTGTATG [CACACA_negctrl_site1233] | 7.29
ATACGACAAATATAAAGTACAAGCTTGGTTTTTATA [XGTACX_site8103] | 6.84
TATGCAAGGAACCACACACACACACGGAAATGTATA [CACACA_site6490] | 6.94
AATTATGGGGAAAAGACACACATATATATATATATA [CACACA_site2589] | 9.55
TTATATATATATGTATGTACTTATAACTTTTATTAG [XGTACX_site3190] | 6.92
ATTCTATAGAAACACACACACATGCATGCACCTATA [CACACA_site107] | 11.7
TTGAGCCTACAAAAGGGTACACATTCAATTTATTTT [XGTACX_site6570] | 6.92

Sequence | gcPBM binding intensity (ln)
AAAAAAAAAAGAAATTGTACTTTTTGTTTAATAATT [XGTACX_site4681] | 6.65
ATATTTTGTTATGAAACACACACATATATATATATA [CACACA_site9216] | 9.43
ATTATATACAAATAAAGTACATAAACAAATTCAGAA [XGTACX_site1187] | 7.13
TATTTCAAACTGTTCTCACACACGAAATTAGAAATG [CACACA_site611] | 6.95
ATAAAATGATGTATCTGTGTATGTTTATTTTGTTTT [XGTACX_negctrl_site367] | 6.87
TTTTGAATATGGATCTTATATATATTAAATAAATAA [CACACA_negctrl_site344] | 6.72
ATTCCAGAAATATATTAACAAGGAAAATATAAAAAT [CACACA_negctrl_site343] | 6.78
ATATATATTATATATGCATGCCAAATCTTTATAAAC [TGCATGCA_site1042] | 7.15
ACATATATATATATATATATATATATATATAGATAG [CACACA_negctrl_site783] | 8.39
ACAAAAAAATATTTATGTACTTATTATATTTATAAT [XGTACX_site2059] | 7.01
CTTTTTACTTAATACACACACACACTAAAAAAAAAA [CACACA_site6574] | 7.44
AAAACTAAATGTTATTCGCACACGGAATTTATTTAA [CACACA_site9221] | 6.81
ATAAAGAAATTACACACATGCAATGAAAAAAAAAAA [TGCATGCA_site406] | 6.96
TACTAAGAAGTATTTACACACCAACAAGGCGAAAAA [CACACA_site2944] | 6.8
ATATGTATAAAAATCCGTACATAAGTGTGCGTATAT [XGTACX_site4376] | 7.16
ATAAATAATATGTAAACACACAAAAAATAAAAATGA [CACACA_site1178] | 7.17
ATGTTTGAGCCTAAGGTGCATATAAAAATATATGTG [GTGCAC_site9690] | 10.7
GAGTTTATATTTTAAGCATGCATATGTTATTATTAT [TGCATGCA_site1049] | 7.12
TATATCAAAAACGAGACATGCATGCCGTTCATTTTG [TGCATGCA_site211] | 6.6
TTATTAACGGAACTCTGTACTTAAAAAATTTTAGAA [XGTACX_site8787] | 7.07
AAAAAAACAGAAAACACACAAATTATCTTATAATTA [CACACA_site6282] | 6.53
TATATAAGAATATATACACACATATCTGTATTTATA [CACACA_site5231] | 6.9

Sequence | gcPBM binding intensity (ln)
ATTGTTTCATTAAAATGTACATAAATTGTGTATAAT [XGTACX_site5341] | 7.33
TATATATATATTTAATGTACATGTTTATTTTATCAT [XGTACX_site499] | 8.54
AATAAAATAAAAAAAAATAAAAAAAAAATAAAAAAT [XGTACX_negctrl_site245] | 6.62
TTTATAAAGGGAAAGGTGCAAAAGGTGAAAGTTTTA | 10.8
TATTTTTCTTTTTAAGTGCATGGTTGTATAAAATTT [GTGCAC_site9480] | 8.39
TCTTTTTTGAAGCATTTTGTTTTTTAATAAGTAAAA [TGCATGCA_negctrl_site247] | 6.89
ATATAATGAAGTGAATGTACATATAAAATGTAAAAA [XGTACX_site8052] | 6.86
TTTTTATAAATAATAAGGCGTATGAAAATAAAATAA [TGCATGCA_negctrl_site421] | 7.13
TCAAAATATCCAAAAGAATAAAGAAAAAAAAAAAGA [CACACA_negctrl_site1377] | 6.83
ATATAACATTGTTTTGCATGTAAATATTCAATTTTT [TGCATGCA_site758] | 6.88
TCAAATTTAATCATAACACACATTCACATATGAATT [CACACA_site3199] | 6.85
TAAAGCAACTGAAACACACAAATTTTTTTTTTTTTT [CACACA_site7499] | 6.8
AAACTGAAAAAAATATGTACATATTTATATCTTATA [XGTACX_site3011] | 7.02
ATTGTATAAAAATGTACATGCAATAAATTTAGTTCT [TGCATGCA_site675] | 7.01
AAAAAAAAAAAACACACACACAAATACAAATACATA [CACACA_site415] | 7.07
GAAACGTTTTTTCAGTGTACATTTTACCGATTTGTA [XGTACX_site8249] | 7.03
TAGTATAATATATATTGTACGTTTTAATTGTTTATA [XGTACX_site2731] | 6.85
TAATAAATCAAATGCACACACACAAAAAAAAAAAAA [CACACA_site161] | 7.31
TTTTTATTTTTTTATGCATGTGATGAAACGTGCCTA [TGCATGCA_site141] | 6.91
ATAATTAACAAATACACACACACACCCAGACAAAAA [CACACA_site4445] | 7.27
TTTTTAATCATAATATGTACATATAAAAATGGTTTG [XGTACX_site3996] | 7.01
AATATGTCTTAAAAAAGTACATAAATTTTAACTTCA [XGTACX_site6670] | 7.1
